The text below walks through data of the supplement of paper PMC9174493.

Some of the results follow. Single values of this set are uncertain. Values with irradiation are relative to irradiated vehicle.

In experiment [1] the test system is A549-Dual. The experiment in a line: NF-kB reporter (SEAP) activity, viability-corrected, relative to vehicle (fold change vs vehicle); higher = more activation of STING-IRF / NF-kB immune response reporter. Particulars: 10 µM.
Experiment [2] has as its system A549-Dual. Description: ISRE reporter (Lucia luciferase) activity, viability-corrected, relative to vehicle (fold change vs vehicle); higher = more activation of STING-IRF / NF-kB immune response reporter. Particulars: 10 µM.
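For NF-kB reporter (SEAP) activity, viability-corrected, relative to vehicle in this document: viability correction based on the alamar blue assay, with concentrations leaving 10% survival or less dropped.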

On to `Cc1cc(-n2c(=O)[nH]c(=O)n(C)c2=O)ccc1Oc1ccc(SC(F)(F)F)cc1` [Toltrazuril], for which the NF-kB reporter stood at 0.884 in experiment [1] (irradiation: 8 Gy/4 fr) and 1.15 in experiment [1] (irradiation: none). For the same compound, the ISRE reporter was found to be 0.826 in experiment [2] (irradiation: 8 Gy/4 fr) and 1.02 in experiment [2] (irradiation: none).
Taken in the same sequence, the figures for `CCCNC(C)C(=O)Nc1c(C)csc1C(=O)OC.Cl` (configuration not stated) [Articaine HCl] were 0.497, 0.683, 0.588 and 0.727.
`Clc1ccc(COC(Cn2ccnc2)c2ccc(Cl)cc2Cl)cc1` (configuration not stated) [Econazole]: the NF-kB reporter came to 0.381 in experiment [1] (irradiation: 8 Gy/4 fr) and 0.538 in experiment [1] (irradiation: none). The values for the ISRE reporter in experiment [2] (irradiation: 8 Gy/4 fr) and in experiment [2] (irradiation: none) were 0.364 and 0.445, respectively.
Taken in the same sequence, the figures for `CC(C)OC(=O)CCC/C=C\CC1C(O)CC(O)C1/C=C/C(O)COc1cccc(C(F)(F)F)c1` (configuration not stated) [Travoprost] were 0.709, 0.954, 0.374 and 0.671.
Taken in the same sequence, the figures for `CCCOc1ccc(C(=O)OCCN(CC)CC)cc1N.Cl` [Proparacaine HCl] were 0.667, 0.788, 0.772 and 0.848.
The like results for `CN(C)CCC=C1c2ccccc2CCc2ccccc21.Cl` [Amitriptyline HCl] were, in that order, 0.808, 0.827, 1.06 and 1.17.
As for `Cl.O=C(O)/C=C/c1ccc(Cn2ccnc2)cc1` [Ozagrel HCl], the NF-kB reporter stood at 0.806 in experiment [1] (irradiation: 8 Gy/4 fr) and 0.872 in experiment [1] (irradiation: none). The ISRE reporter in experiment [2] (irradiation: 8 Gy/4 fr) is 0.794; in experiment [2] (irradiation: none), 0.834.
Taken in the same sequence, the figures for `CS(=O)(=O)O.Fc1ccc(C2CCNCC2COc2ccc3c(c2)OCO3)cc1` (configuration not stated) [Paroxetine mesylate] were 0.641, 1.12, 0.475 and 0.684.
On to `O=C1C(N(CO)C(=O)NCO)N(CO)C(=O)N1CO` (configuration not stated) [Diazolidinyl urea], for which the NF-kB reporter in experiment [1] (irradiation: 8 Gy/4 fr) turned out to be 1.19; in experiment [1] (irradiation: none), 0.887. For the same compound, the ISRE reporter in experiment [2] (irradiation: 8 Gy/4 fr) turned out to be 1.2; in experiment [2] (irradiation: none) it was 0.733.
For the compound `O=C(N/N=C/c1ccc([N+](=O)[O-])o1)c1ccc(O)cc1` [Nifuroxazide], the figures for the NF-kB reporter in experiment [1] (irradiation: 8 Gy/4 fr) and in experiment [1] (irradiation: none) were 1.01 and 1.24, respectively. In addition, the results for the ISRE reporter in experiment [2] (irradiation: 8 Gy/4 fr) and in experiment [2] (irradiation: none) were 0.556 and 1.49, respectively.
As to `CC(C)c1nc(N(C)S(C)(=O)=O)nc(-c2ccc(F)cc2)c1/C=C/C(O)CC(O)CC(=O)[O-].CC(C)c1nc(N(C)S(C)(=O)=O)nc(-c2ccc(F)cc2)c1/C=C/C(O)CC(O)CC(=O)[O-].[Ca+2]` (configuration not stated) [Rosuvastatin Calcium], the NF-kB reporter in experiment [1] (irradiation: 8 Gy/4 fr) is 0.654; in experiment [1] (irradiation: none), 1.16. The figures for the ISRE reporter in experiment [2] (irradiation: 8 Gy/4 fr) and in experiment [2] (irradiation: none) were 0.612 and 0.817, respectively.
The like results for `O=C(O)C(CO)c1ccccc1` (configuration not stated) [Tropic acid] were, in that order, 1.84, 3.3, 2.1 and 8.43.
The like results for `OC(c1ccccc1)(c1ccccc1)C12CC[N+](CCOCc3ccccc3)(CC1)CC2.[Br-]` [Umeclidinium bromide] were, in that order, 0.862, 1.52, 0.907 and 0.881.
The like results for `O=C(CO)C(O)C(O)C(O)CO` (configuration not stated) [Fructose] were, in that order, 0.846, 0.826, 0.724 and 0.55.
Turning to `COC(=O)c1cccnc1` [Methyl nicotinate], the NF-kB reporter in experiment [1] (irradiation: 8 Gy/4 fr) worked out at 0.996; in experiment [1] (irradiation: none), 0.962. Besides, the ISRE reporter was 0.939 in experiment [2] (irradiation: 8 Gy/4 fr) and 0.707 in experiment [2] (irradiation: none).
The like results for `CCCOc1ccc2nc(NC(=O)OC)[nH]c2c1` [Oxibendazole] were, in that order, 0.951, 2.61, 0.232 and 1.83.
The like results for `CC(O)C1C(=O)N2C(C(=O)[O-])=C(C3CCCO3)SC12.[Na+]` (configuration not stated) [Faropenem Sodium] were, in that order, 0.983, 1.03, 0.975 and 0.913.
Taken in the same sequence, the figures for `CCCNC1CCc2nc(N)sc2C1.Cl.Cl.O` (configuration not stated) [Pramipexole 2HCl Monohydrate] were 0.771, 0.76, 0.658 and 0.606.
As to `[Cl][Mn][Cl]` [Manganese chloride], the figures for the NF-kB reporter in experiment [1] (irradiation: 8 Gy/4 fr) and in experiment [1] (irradiation: none) were 0.608 and 0.575, respectively. Also, the ISRE reporter in experiment [2] (irradiation: 8 Gy/4 fr) stood at 0.78; in experiment [2] (irradiation: none) it was 0.653.
Consider `O=C1c2ccccc2C(=O)C1c1ccccc1` [Phenindione], for which the NF-kB reporter is 1.19 in experiment [1] (irradiation: 8 Gy/4 fr) and 0.952 in experiment [1] (irradiation: none). Moreover, the ISRE reporter in experiment [2] (irradiation: 8 Gy/4 fr) was determined as 0.967; in experiment [2] (irradiation: none), 0.712.
The like results for `CCCCCCCCCCCCCCCCCCOCC(O)CO` (configuration not stated) [Batyl alcohol] were, in that order, 0.904, 0.848, 0.765 and 0.768.
The like results for `CCn1cc(C(=O)O)c(=O)c2cc(F)c(N3CCNC(C)C3)c(F)c21` (configuration not stated) [Lomefloxacin] were, in that order, 0.796, 0.895, 0.649 and 0.628.
Regarding `N=C(N)c1ccc(OCCCCCOc2ccc(C(=N)N)cc2)cc1.O=S(=O)(O)CCO.O=S(=O)(O)CCO` [Pentamidine isethionate], the NF-kB reporter amounted to 0.312 in experiment [1] (irradiation: 8 Gy/4 fr) and 0.542 in experiment [1] (irradiation: none). Further, the figures for the ISRE reporter in experiment [2] (irradiation: 8 Gy/4 fr) and in experiment [2] (irradiation: none) were 0.177 and 0.639, respectively.
The like results for `CC1OC(O)C(O)C(O)C1O.O` [L-Rhamnose monohydrate] were, in that order, 0.632, 0.601, 0.562 and 0.607.
Taken in the same sequence, the figures for `COCCCOc1cc(CC(CC(N)C(O)CC(C(=O)NCC(C)(C)C(N)=O)C(C)C)C(C)C)ccc1OC` (configuration not stated) [Aliskiren] were 0.614, 0.782, 0.533 and 0.521.
The like results for `Nc1nc2ccc(OC(F)(F)F)cc2s1` [Riluzole] were, in that order, 0.916, 0.892, 0.761 and 0.729.
With `CC(C)C12CCC(C)(CC1)O2` [1,4-Cineole], the NF-kB reporter came to 0.891 in experiment [1] (irradiation: 8 Gy/4 fr) and 0.859 in experiment [1] (irradiation: none). For the same compound, the ISRE reporter in experiment [2] (irradiation: 8 Gy/4 fr) amounted to 0.824; in experiment [2] (irradiation: none), 0.545.
Turning to `O=C(O)C(O)Cc1ccc(O)c(O)c1` (configuration not stated) [Danshensu], the NF-kB reporter was 0.977 in experiment [1] (irradiation: 8 Gy/4 fr) and 1.41 in experiment [1] (irradiation: none). The figures for the ISRE reporter in experiment [2] (irradiation: 8 Gy/4 fr) and in experiment [2] (irradiation: none) were 0.72 and 0.925, respectively.
